Laboratory results taken from PubChem BioAssay AID1454 (National Center for Advancing Translational Sciences (NCATS), 2008).
The campaign covered roughly 130,000 compounds. About 550 (0.42%) were called active. Inconclusive means that the source gave no clear call. Such entries were picked first, then a sample of the others. Calls come from the whole dose curve; as a rule, active = well fitted inhibition curve with a large enough effect; inconclusive = small, poorly fitted or top-dose-only effect, or effect the other way; inactive = flat fitted curve, though single readings scatter. Potencies of inconclusive entries are left out as doubtful fits.

Test: qHTS Assay for Inhibitors of the ERK Signaling Pathway using a Homogeneous Screening Assay; Stimulation with EGF; note: nearly all actives have a fitted effect of over 55% in size
Details: HEK293-V1b, EGF-stimulated phospho-ERK AlphaScreen
Outline: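 EGF-stimulated (25 nM, 5 min) phospho-ERK in HEK293 cells stably expressing V1b, cells pretreated 30 min with compound at 37C. Homogeneous AlphaScreen read on lysates.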
Potency is the fitted concentration of half-maximal effect; tags give direction and shape of the fitted curve.

Row | Structure (SMILES) | Potency
1 | COC(=O)c1cnc(Oc2ccc(NC(=O)NC(=O)c3c(F)cccc3Cl)cc2)cc1C(F)(F)F | inconclusive [inhibitor, partial curve]
2 | CC(C)C[C@@H](CC(=O)N[C@@H](CCCN)CC(=O)N[C@@H]1CCCC[C@H]1C(=O)N[C@H](CC(=O)N[C@@H](CCC(=O)O)CC(=O)O)Cc1c[nH]c2ccccc12)NC(=O)[C@@H]1CCCC[C@H]1N | inactive
3 | COc1ccc(/C=N/c2c(-c3ccc(OC)cc3)nc3n2CCS3)cc1 | inconclusive [inhibitor, single point]
4 | Cc1ccsc1/C=N/N1CCN(c2ccccn2)CC1 | inconclusive [inhibitor, single point]
5 | CCCC(=O)OCC(=O)Nc1ccc(N=Nc2ccccc2)cc1 | inactive
6 | COc1ccc2c(c1)NC(c1ccc(N(C)C)cc1)c1cccn1-2 (configuration not stated) | inconclusive [activator, partial curve]
7 | O=C(CCc1nc2ccccc2s1)OCc1ccccc1 | inconclusive [activator, single point]
8 | CCCn1c(=O)[nH]c2nc(-c3ccc(S(=O)(=O)O)cc3)[nH]c2c1=O | inactive
9 | O=[N+]([O-])C(=C1SCCS1)C(=C(Cl)Cl)N1CCCCC1 | inconclusive [inhibitor, partial curve]
10 | N#C/C(=C\c1ccco1)C(=O)NCc1ccccc1 | inactive
11 | C=CCN1C(=O)/C(=C\c2ccc(OC(=O)c3ccco3)c(OC)c2)SC1=S | inconclusive [inhibitor, partial curve, poor fit]
12 | Cc1cc(CNC(=O)[C@H](C)[C@H]2C[C@]2(C)[C@H](NC(=O)OCc2ccccc2)c2ccccc2)nn1C | inactive
13 | Cc1cc(C)c2nc(N3CCC(C(=O)NCc4cccnc4)CC3)sc2c1 | inconclusive [inhibitor, single point]
14 | COc1ccc(-c2nnc(Sc3nc4ccccc4o3)c3ccccc23)cc1 | inconclusive [inhibitor, single point]
15 | COc1ccc(Nc2c(-c3ccc(C)cc3)nc3cnccn23)cc1 | inactive
16 | CCC1=NN(C(=O)c2ccc(Br)cc2)C(O)(c2ccc(C)cc2)C1 (configuration not stated) | inconclusive [inhibitor, single point]
17 | CCCOc1ccc(NC(=O)CC2C(=O)N(CC)C(=S)N2CCCN2CCN(Cc3ccccc3)CC2)cc1 (configuration not stated) | inconclusive [inhibitor, single point]
18 | Cc1ccc(-c2cc3c(nn2)-c2ccccc2C3=O)cc1 | inconclusive [inhibitor, partial curve, poor fit]
19 | CN(C=[N+](C)C)c1cccc2c1C(=O)c1ccccc1C2=O | active: 17.8 µM
20 | c1ccc2cc(OCCOCCOc3ccc4ccccc4c3)ccc2c1 | inconclusive [activator, partial curve]
21 | N#C/C(=C\c1cccs1)C(=O)c1ccccc1Cl | inconclusive [inhibitor, single point]
22 | COC1(C)CC2C(CC1OC(=O)c1cc([N+](=O)[O-])cc([N+](=O)[O-])c1)C2(C)C (configuration not stated) | active: 25.1 µM
23 | COc1ccc2nc(NNC(=O)c3cc(=O)c4ccccc4o3)sc2c1 | inconclusive [inhibitor, single point]

Row | Structure (SMILES) | Potency
24 | CCn1ccnc1CN1CCc2c([nH]c3ccccc23)C1CC(C)C (configuration not stated) | inconclusive [inhibitor, single point]
25 | c1ccc(Nc2ncnc3[nH]ncc23)cc1 | inconclusive [inhibitor, single point]
26 | O=C(COc1ccc(Cl)cc1)Nc1nc(-c2cccs2)cs1 | inconclusive [inhibitor, single point]
27 | CN1CCSc2ccc(C(=O)Nc3ccc(Cl)cc3)cc21 | inconclusive [inhibitor, single point]
28 | Cc1cc(-n2c(C)cc(C(=O)COc3ccccc3[N+](=O)[O-])c2C)no1 | inconclusive [inhibitor, single point]
29 | CCOC(=O)c1oc2nc(CC(C)C)c3c(c2c1N)CCCC3 | inconclusive [inhibitor, single point]
30 | Cc1ccc2nc(SCC(=O)Nc3ccc(C)c([N+](=O)[O-])c3)[nH]c2c1 | inconclusive [inhibitor, single point]
31 | CC(=O)Nc1ccc(-c2cc(-c3ccccc3)nc(-c3ccccc3)n2)cc1 | inactive
32 | CCN(CC)C(=O)CSc1nc2cc3c(cc2c(=O)n1CCCC(=O)NCCc1ccc(OC)c(OC)c1)OCO3 | inconclusive [inhibitor, single point]
33 | CCCC(=O)Nc1nc(CC(=O)OCC)cs1 | inactive
34 | CCN(CC)c1ccc(C(=O)Nc2ccccc2)cc1[N+](=O)[O-] | inconclusive [inhibitor, partial curve]
35 | C/C(=C/c1ccccc1)C(=O)N1CC(C)OC(C)C1 (configuration not stated) | inconclusive [activator, partial curve, poor fit]
36 | OC(CCCN1CCCCC1)(c1ccccc1)c1ccccc1 | inconclusive [inhibitor, single point]
37 | O=C(/C=C/c1ccc(Cl)cc1Cl)Nc1ccc(CN2CCOCC2)cc1 | inconclusive [inhibitor, single point]
38 | CC1(C)CC(NC(=O)c2sc3cc(Cl)ccc3c2Cl)CC(C)(C)N1 | inconclusive [inhibitor, partial curve]
39 | CC1CCC/C=C/C(=O)c2c(O)cc(O)cc2CC(=O)O1 (configuration not stated) | inactive
40 | CN(C)c1ccc(C(=S)N2CCN(Cc3ccccc3)CC2)cc1 | inconclusive [inhibitor, partial curve, poor fit]
41 | CC(C)(C)CC(C)(C)c1ccc(O)c(Cc2ccc(Cl)cc2Cl)c1 | inconclusive [inhibitor, single point]
42 | COc1cc([C@@H]2Oc3cc([C@H]4Oc5cc(O)cc(O)c5C(=O)[C@H]4O)ccc3O[C@H]2CO)ccc1O | inactive
43 | COC(=O)N1CCC2(CC1)CN(c1cccc(-c3ccccc3)c1)C2 | inconclusive [inhibitor, partial curve, poor fit]
44 | Cc1ccc(CN2CCN(/N=C/c3ccc(Cl)c([N+](=O)[O-])c3)CC2)cc1 | inconclusive [inhibitor, partial curve]
45 | COc1ccc(NC(=O)N(Cc2cc3cc(C)ccc3[nH]c2=O)CC2CCCO2)cc1 (configuration not stated) | inactive
46 | COc1ccc(C(=O)N2CCC[C@@]3(CCN(Cc4ccncc4)C3)C2)cc1 | inactive

Row | Structure (SMILES) | Potency
47 | CCCn1c(=O)[nH]c(=O)c2c(C(F)(F)F)cc(-c3ccc(C)cc3)nc21 | inconclusive [inhibitor, partial curve]
48 | Cc1oc(S(=O)(=O)N2CCOCC2)cc1C(=O)Nc1ccc(F)cc1 | inconclusive [inhibitor, partial curve]
49 | COC(=O)c1[nH]c2ccccc2c1NC(=O)CN1CCN(C/C=C/c2ccccc2)CC1 | inconclusive [inhibitor, single point]
50 | OC(CNCCC1C=Nc2ccccc21)Cn1c2ccc(Cl)cc2c2cc(Cl)ccc21 (configuration not stated) | active: 22.4 µM
51 | COc1ccc(C(=O)NCC(=O)N/N=C/c2c(C)[nH]c3ccccc23)cc1OC | inactive
52 | Cc1cccc(OCC(=O)N2CCN(C(=O)c3ccc([N+](=O)[O-])cc3)CC2)c1 | inactive
53 | CCOc1ccc(Nc2nc(NCC3CCCO3)c3ccccc3n2)cc1 (configuration not stated) | inconclusive [inhibitor, single point]
54 | O=C1c2ccccc2C(=O)c2c1ccc1c(=O)n(C3CCCCC3)[nH]c21 | inconclusive [inhibitor, full curve, poor fit]
55 | Cc1cc(Cl)ccc1OCCCC(=O)N/N=C/c1cccc([N+](=O)[O-])c1 | inconclusive [inhibitor, partial curve]
56 | Cc1ccc(C)c(NC(=S)NNC(=S)Nc2ccc(C(C)C)cc2)c1 | inconclusive [activator, partial curve]
57 | Cc1oc(-c2cccc3ccccc23)nc1CN1CCN(c2ncnc3ccccc23)CC1 | active: 31.6 µM
58 | Cc1ccc(C)c(Nc2c([N+](=O)[O-])c(=O)oc3ccccc23)c1 | inconclusive [inhibitor, single point]
59 | Cc1ccc(C(=O)Nc2nc(C)c(C(=O)Nc3ccc4c(c3)CCC4)s2)cc1 | inactive
60 | Nc1c2c(nc3sc4c(c13)CCCC4)-c1ccccc1CC2 | inconclusive [inhibitor, single point]
61 | CC(C)NC(=S)N1CCN(C/C=C/c2ccccc2)CC1 | inconclusive [inhibitor, single point]
62 | O=S(=O)(c1ccccc1)N1CCC2(CC1)CO2 | inconclusive [inhibitor, single point]
63 | CC(C)Cn1c(N)c(C(=O)COC(=O)c2ccc(O)cc2)c(=O)n(C)c1=O | inconclusive [activator, full curve, poor fit]
64 | COc1ccc(S(=O)(=O)NCCCCC(=O)O)cc1C(=O)O | inconclusive [inhibitor, single point]
65 | Cc1cc(C)c(C(=O)O)c(Cl)n1 | inconclusive [activator, partial curve]
66 | O=C(N[C@@H](Cc1ccccc1)C(=O)O)c1ccccc1 | inactive
67 | O=C(Nc1nc2nccc(-c3ccccc3)n2n1)c1ccc(F)cc1 | inactive
